Data from PMC4336329 (PLoS ONE, 2015).
Hit rate of the full screen: of about 310,000 compounds, about 14,000 (4.5%) showed an effect of 50% or more. The effect is printed as a negative number. This is one part of the list.

Biological target: human ether-à-go-go-related gene (hERG) potassium channel (human, UniProt Q12809)
Test: primary screen, population patch clamp on CHO cells stably expressing hERG
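Note: peak tail current of the secondary pulse compared with the same well before compound.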

human ether-à-go-go-related gene (hERG) potassium channel, sequence (Q12809 whole entry, looked up): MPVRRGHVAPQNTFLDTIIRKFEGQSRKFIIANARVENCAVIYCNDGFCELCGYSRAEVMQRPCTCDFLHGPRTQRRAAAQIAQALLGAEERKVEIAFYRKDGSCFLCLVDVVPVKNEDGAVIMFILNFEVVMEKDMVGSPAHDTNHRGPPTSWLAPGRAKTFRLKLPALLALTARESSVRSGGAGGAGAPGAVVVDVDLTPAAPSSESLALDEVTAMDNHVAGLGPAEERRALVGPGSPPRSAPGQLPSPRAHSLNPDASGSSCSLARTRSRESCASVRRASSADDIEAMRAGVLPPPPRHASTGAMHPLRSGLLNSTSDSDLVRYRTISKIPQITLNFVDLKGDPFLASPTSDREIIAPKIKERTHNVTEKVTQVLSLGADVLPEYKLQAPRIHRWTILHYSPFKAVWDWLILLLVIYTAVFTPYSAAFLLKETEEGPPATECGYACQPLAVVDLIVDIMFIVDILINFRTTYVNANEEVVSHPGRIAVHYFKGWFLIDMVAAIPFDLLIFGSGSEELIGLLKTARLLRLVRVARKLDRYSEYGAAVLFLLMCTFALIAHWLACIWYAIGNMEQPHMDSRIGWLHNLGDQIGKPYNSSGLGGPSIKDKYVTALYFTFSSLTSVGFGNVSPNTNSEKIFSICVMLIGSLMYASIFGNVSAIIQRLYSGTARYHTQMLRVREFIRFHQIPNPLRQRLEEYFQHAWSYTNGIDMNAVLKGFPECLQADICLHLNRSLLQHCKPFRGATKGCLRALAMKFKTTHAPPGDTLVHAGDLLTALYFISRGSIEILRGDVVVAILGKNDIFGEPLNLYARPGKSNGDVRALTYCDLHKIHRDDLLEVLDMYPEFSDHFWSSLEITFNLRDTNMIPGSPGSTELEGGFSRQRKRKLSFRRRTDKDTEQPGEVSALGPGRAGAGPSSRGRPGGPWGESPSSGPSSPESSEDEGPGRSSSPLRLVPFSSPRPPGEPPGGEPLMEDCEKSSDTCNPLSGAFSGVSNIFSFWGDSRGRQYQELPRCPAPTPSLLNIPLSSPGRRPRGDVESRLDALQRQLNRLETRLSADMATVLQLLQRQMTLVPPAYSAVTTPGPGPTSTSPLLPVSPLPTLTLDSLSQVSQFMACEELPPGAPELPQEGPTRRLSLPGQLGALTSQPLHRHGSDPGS

| Structure (SMILES) | hERG current change (%, negative = inhibition) at 10uM [%] |
| --- | --- |
| Cn1c(-c2ccc(F)cc2)cnc1NCc1cccc([N+](=O)[O-])c1 | -70.9 |
| CCN1CCN(c2ccc(S(=O)(=O)N3CCCCC3)cc2NC(=O)c2cccc(C(F)(F)F)c2)CC1 | -46.7 |
| O=C(CS(=O)(=O)c1ccc(Cl)cc1)NCc1ccccc1 | 9.73 |
| COc1cccc(C(=O)N(Cc2cc3cc(C)ccc3[nH]c2=O)CC2CCCO2)c1 (stereo not shown) | -17.4 |
| COc1cccc(C(=O)O[C@H]2[C@H](C)NS(=O)(=O)[C@H]3C[C@@H]4C=C[C@]23O4)c1 | 19.7 |
| CCOC(=O)c1cnn(-c2ccc(NS(=O)(=O)c3ccc(Cl)cc3)cc2)c1C(F)(F)F | 0.457 |
| Clc1ccc(OCCCN2CCCCC2)c(Br)c1.O=C(O)C(=O)O | -70.7 |
| COc1ccc(NC(=O)CN(c2ccc([N+](=O)[O-])cc2)S(=O)(=O)c2ccccc2)c(OC)c1 | -11.7 |
| CC(C)Cc1nc(N2CCN(C(=O)c3ccco3)CC2)c(C#N)c2c1CCCC2 | 2.1 |
| Cc1nc2ccccn2c1C(=O)NC1CCCc2ccccc21 (stereo not shown) | 13.4 |
| O=C(NN1CCOCC1)c1ccc(F)cc1 | 1.47 |
| CCCS(=O)(=O)c1nc(S(=O)(=O)c2ccc(C)cc2)c(NCc2ccc3c(c2)OCO3)s1 | 15 |
| COc1ccc(C(C(=O)NC(C)(C)C)N(C(=O)CCC(=O)Nc2ccccn2)C2CCCCC2)cc1 (stereo not shown) | -13.6 |
| CCN(CC(=O)Nc1ccc2c(c1)OCO2)Cc1nc2ccccc2c(=O)[nH]1 | -13.6 |
| O=C(O)CSc1nc2ccc(C(=O)c3ccccc3)cc2[nH]1 | 17.2 |
| Cc1[nH]c2c(C)cccc2c1CCNS(=O)(=O)c1cccc([N+](=O)[O-])c1 | -1.47 |
| CC(C)(C)Cc1nnc(NC(=O)CCc2ccccc2)s1 | 5.53 |
| CN(C)CCO[C@@H](c1ccc(Cl)cc1)c1ccccn1.O=C(O)/C=C\C(=O)O | -29.5 |
| O=C(Cc1cccs1)N/N=C/C=C\c1ccco1 | 11.1 |
| O=C(NCc1ccccc1Cl)c1cccc(OC2CCN(C(=O)C3CC3)CC2)c1 | -19.4 |
| CCCc1nc2ccc(NC(=O)c3cccs3)cc2c(=O)n1Cc1ccc(Cl)cc1 | 1.44 |
| O=C(c1ccc(Cl)cc1)N1CCC(O)(CSc2ccc(Cl)cc2Cl)CC1 | -15.1 |

| Structure (SMILES) | hERG current change (%, negative = inhibition) at 10uM [%] |
| --- | --- |
| O=C(NCc1ccco1)C(=S)N1CCCCC1 | 22.6 |
| COC(=O)c1ccc(N2C(=O)C3C4C=CC(CC4)C3C2=O)cc1 (stereo not shown) | 19.3 |
| O=c1c2ccccc2ncn1Cc1cccc2ccccc12 | 7.64 |
| Cc1ccccc1NC(=O)CCCN1C(=O)C2CC=CCC2C1=O (stereo not shown) | 7.49 |
| O=S(=O)(c1ccccc1)c1ncc(C(F)(F)F)cc1O | 9 |
| Cc1ccc(S(=O)(=O)NCC(=O)NCC(=O)OCC(=O)NC(=O)NC(C)(C)C)cc1C | 15 |
| O=C(COC(=O)Cn1[nH]c(=O)c2ccccc2c1=O)Nc1ccc2c(c1)OCO2 | 4.31 |
| Cc1cccc2c1CC(C)(C)N/C2=C\C(N)=O | 8.37 |
| Cc1ccsc1/C=N\Nc1cn[nH]c(=O)c1Cl | 14.2 |
| CSc1ncc(Cl)c(C(=O)Nc2nnc(SC)s2)n1 | -38.7 |
| O=C(N/N=C/c1ccccn1)c1ccc(S(=O)(=O)N2CCCCCC2)cc1 | 11.2 |
| C=C[C@H](CC(C)C)N(Cc1ccccc1)S(=O)(=O)N(Cc1ccc(OC)cc1)[C@H](C=C)CC(C)C | -23 |
| CSCCOC(=O)COc1ccc(/C=N/NC(=O)c2c(Cl)cnn2C)cc1 | 3.85 |
| COc1ccc(CNC(=O)CCCn2ncn3c(cc4occc43)c2=O)cc1 | -22.4 |
| CCN(CC)c1ccc(S(=O)(=O)N2CCOCC2)cc1NC(=O)CSc1cccc[n+]1[O-] | 3.89 |
| CCOC(=O)N1CCC(NC(=O)CC2C(=O)NCCN2Cc2ccccc2)CC1 (stereo not shown) | -1.48 |
| CCCCCN(C(=O)CCC(=O)OCc1cccc(C)c1)c1c(N)n(CCCC)c(=O)[nH]c1=O | 1.51 |
| COc1ccc(Nc2ccncc2[N+](=O)[O-])cc1 | -11.5 |
| CCN1C(=O)C(O)(CC(=O)c2cccc(-n3cccc3)c2)c2ccccc21 (stereo not shown) | -4.08 |
| CSCC(C)N1CCC(CO)(CCCc2ccccc2)CC1 (stereo not shown) | -55.7 |
| COc1cc(-c2n[nH]c(=S)n2-c2ccccc2C(F)(F)F)cc(OC)c1OC | 6.38 |
